# Data: PubChem BioAssay AID720708 (National Center for Advancing Translational Sciences (NCATS), 2013)
# Among all 360,000 compounds or so, about 660 (0.18%) were called active. This list was built around the results that the source calls inconclusive (neither active nor inactive); the mix of calls is not that of the screen. Calls follow the shape of the dose curve; as a rule, active = well fitted inhibition curve with a large enough effect; inconclusive = small, poorly fitted or top-dose-only effect; inactive = no such curve, though single readings can be large or run the other way. Potencies of inconclusive entries are left out as doubtful fits.
# Biological target: Rap guanine nucleotide exchange factor 4 (Homo sapiens) (UniProt Q8WZA2)
# Assay: qHTS for Antagonist of cAMP-regulated guanine nucleotide exchange factor 2 (EPAC2): primary screen; also: nearly all actives have a fitted effect of over 45% in size
# Details: EPAC2 GEF exchange of Rap1B-BODIPY-GDP, fluorescence; activity, negative = inhibition: at 114 µM (top of the series) unless noted
# % is scaled to controls: 0 for no effect and ±100 for the full control effect; potency is read from the fitted curve at half-maximal effect; tags tell the direction and shape of the fitted curve.
# Sequence of UniProt Q8WZA2 (Q8WZA2 whole entry, looked up): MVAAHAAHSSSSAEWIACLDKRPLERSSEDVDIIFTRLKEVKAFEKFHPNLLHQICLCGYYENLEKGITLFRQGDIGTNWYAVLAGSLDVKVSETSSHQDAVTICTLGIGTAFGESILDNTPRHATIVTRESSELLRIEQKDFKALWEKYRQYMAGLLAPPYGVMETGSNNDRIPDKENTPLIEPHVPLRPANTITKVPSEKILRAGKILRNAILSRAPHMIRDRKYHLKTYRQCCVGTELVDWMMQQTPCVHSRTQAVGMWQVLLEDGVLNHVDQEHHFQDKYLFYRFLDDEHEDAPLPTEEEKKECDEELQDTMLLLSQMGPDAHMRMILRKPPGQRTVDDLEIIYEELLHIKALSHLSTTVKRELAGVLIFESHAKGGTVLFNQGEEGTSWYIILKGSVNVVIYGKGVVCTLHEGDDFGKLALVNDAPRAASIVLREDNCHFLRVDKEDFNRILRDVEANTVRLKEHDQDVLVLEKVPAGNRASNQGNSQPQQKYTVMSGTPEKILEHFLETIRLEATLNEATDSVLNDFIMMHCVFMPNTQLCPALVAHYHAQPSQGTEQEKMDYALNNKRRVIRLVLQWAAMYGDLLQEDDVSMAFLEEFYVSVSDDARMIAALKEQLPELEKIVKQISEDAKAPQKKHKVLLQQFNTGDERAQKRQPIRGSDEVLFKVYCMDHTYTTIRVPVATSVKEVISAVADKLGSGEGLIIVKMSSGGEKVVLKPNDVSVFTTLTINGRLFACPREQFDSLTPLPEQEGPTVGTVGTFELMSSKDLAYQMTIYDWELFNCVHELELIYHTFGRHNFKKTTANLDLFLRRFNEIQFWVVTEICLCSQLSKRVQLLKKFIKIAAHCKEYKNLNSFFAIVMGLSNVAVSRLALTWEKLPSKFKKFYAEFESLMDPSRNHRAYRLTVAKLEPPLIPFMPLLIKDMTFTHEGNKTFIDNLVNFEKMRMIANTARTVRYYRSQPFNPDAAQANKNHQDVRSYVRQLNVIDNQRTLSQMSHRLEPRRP
Structure (SMILES),Potency,"activity, negative = inhibition"
CCN(CC)c1ccc(NC(=O)CSc2nc3nc(C)cc(C)c3c(=O)[nH]2)cc1,"inconclusive [inhibitor, single point]",
Cc1cc(CNC(=O)COc2ccccc2F)c2ccccc2n1,"inconclusive [inhibitor, single point]",
COc1cc(C2CC(=O)Oc3ccc(C(C)(C)C)cc32)cc(OC)c1OC (configuration not stated),"inconclusive [inhibitor, full curve]",
COc1ccc(CCNC(=O)CSc2nc(N)c(C#N)c(-c3cccs3)c2C#N)cc1OC,,inactive: 2.21%
CCCCOc1ccc(C(=O)N/C(=C/C=C/c2ccccc2)C(=O)NCCCO)cc1,"inconclusive [inhibitor, partial curve]",
CCOC(=O)C1=CCN(S(=O)(=O)c2ccc(F)cc2)C1c1cccc(F)c1 (configuration not stated),"inconclusive [inhibitor, partial curve]",
COc1ccc2nc(NC(=O)C3CCN(S(=O)(=O)c4cccs4)CC3)sc2c1,,inactive: -2%
CC(=O)c1c(COC(=O)c2ccccc2Cl)nc2ccccc2[n+]1[O-],"inconclusive [inhibitor, single point]",
Cc1snc(SCc2ccc(F)cc2)c1C#N,"inconclusive [inhibitor, partial curve, poor fit]",
COc1cccc(C(NC(C)=O)c2nc(-c3cccc(C#N)c3)cs2)c1 (configuration not stated),"inconclusive [inhibitor, partial curve, poor fit]",
CN(C1CCCCC1)S(=O)(=O)c1ccc(=S)[nH]c1,,inactive: 26.5%
Cc1ccc(S(=O)(=O)n2nccc2-c2c(-c3ccc(Cl)cc3)noc2C)cc1,"inconclusive [inhibitor, full curve, poor fit]",
CC(=O)NC(c1ccccc1)c1nc(-c2cccs2)cs1 (configuration not stated),"inconclusive [inhibitor, partial curve]",
Cc1ccccc1NC(=O)Nc1ccccc1N1CCCCC1,"inconclusive [inhibitor, partial curve]",
Cc1ccc2c(c1C)OC(=O)CC2c1ccccc1 (configuration not stated),"inconclusive [inhibitor, partial curve]",
O=C(O)CSc1c(-c2ccccc2)[nH]c2ccccc12,"inconclusive [inhibitor, single point]",
CC(NC1c2ccccc2-c2ccccc21)c1ccccc1 (configuration not stated),"inconclusive [inhibitor, partial curve]",
O=C(O)CN1C(=O)/C(=C\c2cccc(OCc3ccccc3)c2)SC1=S,"inconclusive [inhibitor, partial curve]",
CC(C)(C)NC(=O)NC(=O)COC(=O)CCCc1c[nH]c2ccccc12,"inconclusive [inhibitor, single point]",
O=C(Cc1cccs1)Nc1nc2ccccc2s1,,inactive: 5.46% [at 57.1 µM]
COc1ccc(C2=CC3=C(Br)C(=O)C(C)(O)C(=O)C3=CO2)cc1 (configuration not stated),"inconclusive [inhibitor, partial curve]",

Structure (SMILES),Potency,"activity, negative = inhibition"
CCCc1c(-c2ccccc2)ncn1Cc1ccccc1OC,"inconclusive [inhibitor, partial curve]",
CC(CCC(C)C(C)(C)C)[C@@H]1CC[C@H]2C3C[C@H](OS(O)(=S)=S)[C@H]4C[C@H](OS(O)(=S)=S)[C@@H](OS(O)(=S)=S)C[C@]4(C)[C@H]3CC[C@]12C (some centres not stated) (tested in a mixture with another compound),active: 20 µM,
C=CC[C@H](CC(=O)NCCO)C(=O)N[C@@H](COC(=O)[C@H](CC=C)CC(=O)OC(C)(C)C)Cc1c[nH]c2ccccc12,,inconclusive: -11.4% [inhibitor]
O=C(c1ccco1)N1CCCC(c2nc3c(nnn3Cc3ccc(Cl)cc3Cl)c(=O)[nH]2)C1 (configuration not stated),"inconclusive [inhibitor, partial curve]",
CCOC(=O)[C@]12CCC=C1N(Cc1ccc3c(c1)OCO3)C(=O)[C@H](CC(=O)NCc1ccc(C)o1)C2,"inconclusive [inhibitor, single point]",
COc1ccc(OC)c(CNC(=O)CCCc2cn(C)c3ccccc23)c1,"inconclusive [inhibitor, single point]",
O=C(O)C1=C[C@H](c2ccc(Br)cc2)C[C@H](OCCCCO)O1,,inactive: 3.45%
COc1ccc(/C=C(\C#N)c2cc(OC)c(OC)cc2[N+](=O)[O-])cc1,"inconclusive [inhibitor, full curve]",
CC1CC(C)CN(c2nc(N(C)c3ccccc3)nc(N)c2[N+](=O)[O-])C1 (configuration not stated),"inconclusive [inhibitor, partial curve]",
Cc1c(C)n(C)c2ccc(C(=O)NCc3cccs3)cc12,"inconclusive [inhibitor, single point]",
COc1cccc(CN(C)CC(=O)Nc2cccc(C(F)(F)F)c2)c1OC,"inconclusive [inhibitor, partial curve]",
COC(=O)C[C@H]1CC[C@@H]2[C@H](COC[C@H](O)CN2S(=O)(=O)c2ccccc2OC)O1,"inconclusive [inhibitor, full curve]",
COC(=O)c1cn(C(=O)c2ccc(OC)cc2)c2ccccc12,"inconclusive [inhibitor, partial curve]",
CCCCCCCCN1C(=O)[C@H](CC(=O)NCc2ccc(OC)c(OC)c2)C[C@@]2(C(=O)OCC)CCC=C12,"inconclusive [inhibitor, partial curve]",
CN(CC(=O)Nc1ccc(Cl)c(C(F)(F)F)c1)CC(=O)NC1CCCCC1,"inconclusive [inhibitor, partial curve]",
CSC(C(=O)c1cc2ccccc2o1)c1ccccc1 (configuration not stated),"inconclusive [inhibitor, full curve, poor fit]",
O=C(c1cc2cc(Br)ccc2o1)N1CCCCC1,"inconclusive [inhibitor, partial curve]",
O=C(O)c1cccc(Nc2ccc([N+](=O)[O-])c3nonc23)c1,"inconclusive [inhibitor, single point]",
O=[N+]([O-])c1cc([N+](=O)[O-])c(N2CCOCC2)cc1NCc1ccccc1,,inactive: -0.23%
O=C(c1ccc2c(c1)N(Cc1ccccc1)CCS2)N1CCCCC1,"inconclusive [inhibitor, full curve]",
Cc1ccccc1Nc1c(-c2ccccn2)nc2ccccn12,"inconclusive [inhibitor, partial curve]",

Structure (SMILES),Potency,"activity, negative = inhibition"
CCCCCNC(=O)C(c1ccccc1)n1c(=O)c(-c2cc3ccccc3[nH]2)nc2ccccc21 (configuration not stated),"inconclusive [inhibitor, single point]",
Cn1nc(C(F)(F)F)c(-c2ccc(Br)cc2)c1NC(=O)c1cccnc1,"inconclusive [inhibitor, partial curve]",
Cc1cccc(/C=C2/S/C(=N/N=C3\CC4CCC3(C)C4(C)C)NC2=O)c1 (configuration not stated),"inconclusive [inhibitor, partial curve]",
CC(C)Sc1nc2sccc2c(=O)n1-c1ccccc1,"inconclusive [inhibitor, partial curve]",
Oc1ccc(-c2c(-c3ccsc3)sc3ccccc23)cc1,"inconclusive [inhibitor, full curve]",
Cc1ccc(S(=O)(=O)N2CCC(=O)N(C(COCc3ccc(C(F)(F)F)cc3)C(C)C)CC2)cc1 (configuration not stated),"inconclusive [inhibitor, full curve, poor fit]",
CC(C)(C)c1ccc(Cn2nnc3c(=O)[nH]c(C4CCCN(C(=O)c5ccco5)C4)nc32)cc1 (configuration not stated),"inconclusive [inhibitor, full curve]",
Cc1nc2scc(C)n2c(=O)c1S(=O)(=O)N1CCN(c2ccccc2F)CC1,"inconclusive [inhibitor, single point]",
C[C@H]1CCC(=O)N([C@H](CSc2ccccc2)Cc2ccccc2)CC1,"inconclusive [inhibitor, partial curve]",
CCc1nc2ccc(C(=O)NCCOc3ccc(OC)cc3)cn2c1N(C)C(=O)C1CCCCC1,,inactive: 2.03%
CC(=O)c1ccc(N(CC(=O)NCc2ccc3c(c2)OCO3)C(=O)c2csnn2)cc1,"inconclusive [inhibitor, single point]",
Cc1cccc(C)c1-n1nnnc1C1c2ccccc2C(=O)N1CCCN1CCOCC1 (configuration not stated),,inactive: 5.9%
CC1(Cc2cc(Cl)ccc2C(F)(F)F)C(=O)Nc2ccc(OC(F)(F)F)cc21 (configuration not stated),"inconclusive [inhibitor, full curve]",
CCOc1ccc(C(=O)OCC(=O)NCCNC(=O)COC(=O)c2ccc(OCC)cc2)cc1,"inconclusive [inhibitor, single point]",
CCCCn1c(N)c(Sc2ccc(C)cc2)c(=O)[nH]c1=O,,inactive: 0.716%
COc1ccc(F)cc1S(=O)(=O)N1CCC2(CC1)OCCN2S(=O)(=O)c1cccs1,,inactive: 20.5%
COc1ccc2cc([C@H](C)C(=O)N(C)Cc3ccccc3N3CCCC3)ccc2c1,"inconclusive [inhibitor, full curve]",
O=C(O)c1ccc2c(c1)C(=O)N([C@H](Cc1cccc3ccccc13)C(=O)O)C2=O,"inconclusive [inhibitor, single point]",
CC(=O)C(C(c1ccccc1)c1c[nH]c2ccccc12)[N+](=O)[O-] (configuration not stated),"inconclusive [inhibitor, full curve]",
Fc1ccc(-c2ccnn2-c2ccccc2)cc1,"inconclusive [inhibitor, partial curve]",
